# According to PMC4336329 (PLoS ONE, 2015):
# Among all 310,000 compounds or so, about 14,000 (4.5%) showed an effect of 50% or more. The effect is printed as a negative number. The list shows a part of the results.
# Target: human ether-à-go-go-related gene (hERG) potassium channel (human, UniProt Q12809)
# Experiment: primary screen, population patch clamp on CHO cells stably expressing hERG
# 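Further: peak tail current of the secondary pulse compared with the same well before compound.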
# human ether-à-go-go-related gene (hERG) potassium channel, sequence (Q12809 whole entry, looked up): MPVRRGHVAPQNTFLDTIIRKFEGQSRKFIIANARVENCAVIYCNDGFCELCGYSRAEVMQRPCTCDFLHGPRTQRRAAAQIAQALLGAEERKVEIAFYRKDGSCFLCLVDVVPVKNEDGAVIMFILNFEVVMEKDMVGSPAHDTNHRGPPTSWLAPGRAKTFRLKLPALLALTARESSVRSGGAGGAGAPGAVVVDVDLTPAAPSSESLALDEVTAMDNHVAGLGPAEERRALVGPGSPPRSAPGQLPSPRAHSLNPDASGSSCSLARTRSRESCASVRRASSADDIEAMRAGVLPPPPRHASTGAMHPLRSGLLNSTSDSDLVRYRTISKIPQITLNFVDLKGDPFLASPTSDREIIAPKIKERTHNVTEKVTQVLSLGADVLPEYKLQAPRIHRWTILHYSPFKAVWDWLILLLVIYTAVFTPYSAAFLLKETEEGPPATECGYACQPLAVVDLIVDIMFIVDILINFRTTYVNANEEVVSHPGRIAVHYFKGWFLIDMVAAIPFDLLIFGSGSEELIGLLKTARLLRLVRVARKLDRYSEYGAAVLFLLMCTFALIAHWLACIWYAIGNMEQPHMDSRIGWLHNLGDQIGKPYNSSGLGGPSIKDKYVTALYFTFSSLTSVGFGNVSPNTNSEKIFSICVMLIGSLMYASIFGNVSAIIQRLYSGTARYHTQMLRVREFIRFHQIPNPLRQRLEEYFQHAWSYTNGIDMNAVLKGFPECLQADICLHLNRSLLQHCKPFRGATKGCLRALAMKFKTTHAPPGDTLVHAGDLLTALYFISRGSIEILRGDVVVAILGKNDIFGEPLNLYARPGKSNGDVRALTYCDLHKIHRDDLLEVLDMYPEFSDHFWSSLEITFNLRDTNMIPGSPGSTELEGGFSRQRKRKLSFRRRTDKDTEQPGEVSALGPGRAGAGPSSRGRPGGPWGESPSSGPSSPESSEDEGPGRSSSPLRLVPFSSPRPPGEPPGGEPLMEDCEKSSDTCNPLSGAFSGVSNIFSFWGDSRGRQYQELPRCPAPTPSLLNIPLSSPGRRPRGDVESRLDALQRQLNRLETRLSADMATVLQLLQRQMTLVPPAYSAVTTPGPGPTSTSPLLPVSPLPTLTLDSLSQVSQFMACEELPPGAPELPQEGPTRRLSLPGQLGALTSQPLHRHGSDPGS
row,SMILES,"hERG current change (%, negative = inhibition) at 10uM [%]"
1,COc1ccc(OC)c(/C(O)=C/C(=O)C(=O)Nc2cc(C)cc(C)c2)c1,-5.65
2,Cc1ccc(CNC(=O)Cc2ccc(-c3ccccc3)cc2)cc1,-7.08
3,O=C(CCn1cnc(-c2ccccc2)c1-c1ccccc1)N/N=C/c1ccccc1O,-18.4
4,Fc1ccccc1NC(=S)NCCc1ccc(Cl)cc1,2.22
5,CCOc1ccc(-c2nnn(CC(=O)NCc3ccc(C)cc3)n2)cc1,8.27
6,Cc1cnc(C)c(N2CCN(Cc3nc(-c4ccccc4)no3)CC2)n1,-42.2
7,COc1ccc(C2C(C#N)=C(N)N(c3ccccc3C#N)C3=C2C(=O)CCC3)cc1CN1CCCC1 (stereo not shown),9.11
8,CCc1noc(C)c1C(=O)NNC(=O)c1nn(C)c(=O)c2ccccc12,-50.2
9,COc1ccc(CCC(=O)N2CCN(c3ccccc3)CC2)cc1OC,14
10,Cc1nccc2[nH]c(=O)c(C(=O)NC3CCCCC3C)cc12 (stereo not shown),-4.13
11,CCC(Sc1ccccn1)C(=O)Nc1nnc(C)s1 (stereo not shown),-11.8
12,C[C@@]12C(=O)N(Cc3ccccc3)CC(=O)N1[C@H]1c3cc(Cl)ccc3OC[C@@H]1[C@@H]2c1ccccc1,16.5
13,COc1ccc(/C(C#N)=C/c2c(-c3ccc(Cl)cc3)nc3c(C)cccn23)cc1,16.9
14,COc1ccc(CCNC(=O)c2cccnc2)cc1,-2.76
15,Cc1ccc(NS(=O)(=O)c2cc(NC(=O)c3ccc4c(c3)NC(=O)CS4)ccc2Cl)c(C)c1,25.1
16,CC(C)C(=O)NC(=O)[C@@H]1CCCN1C(=O)/C=C/c1ccccc1,8.62
17,COc1cc(CNc2ccccc2SC)cc(OC)c1OC,13.5
18,Cn1c(NCc2cc(Br)ccc2O)nc2ccccc21,0.412
19,O=C(Nc1ccccc1)NC1(C(=O)NCCCN2CCOCC2)CCCCC1,-2.49
20,O=c1cc(O)c2ccccc2n1Cc1ccccc1,6.05

row,SMILES,"hERG current change (%, negative = inhibition) at 10uM [%]"
1,CC1C(=O)NC(=O)C1c1ccccc1 (stereo not shown),14.2
2,N#C/C(=C/c1ccc(N2CCOCC2)o1)C(=O)NC1CCCCC1,-32.5
3,CC(C)OCC1CC(CC(=O)Nc2ccc([N+](=O)[O-])cc2)C(=O)O1 (stereo not shown),-34.1
4,CCOC(=O)C(NC(=O)c1cccnc1)(Nc1cccc(C)n1)C(F)(F)F (stereo not shown),1.24
5,CC1CN(C(=O)c2cc3c(=O)n4ccccc4nc3s2)CC(C)O1 (stereo not shown),-4.06
6,Cc1ccc(CN2C(=O)C(CC(C)C)Nc3ncnc(N4CCN(c5ccccn5)CC4)c32)cc1.O=C(O)C(F)(F)F (stereo not shown),-43.3
7,CCNC(=S)N(CCc1c(C)[nH]c2ccc(Cl)cc12)Cc1cccnc1,-19.3
8,Cc1cccc(NC(=S)NCCc2ccccn2)c1,4.38
9,O=C(NC1CC1)c1cccc(Br)c1,0.381
10,COc1cccc(NC(=S)N2CCC(N(C)CC3CCCO3)CC2)c1 (stereo not shown),-15.2
11,CCCCN1C(=O)CC(N2CCOCC2)C1=O (stereo not shown),16.9
12,Cc1cc2cc(CNC(=O)COc3ccccc3)ccc2n1C,-1.63
13,O=S(=O)(Nn1cnnc1)c1ccc2ccccc2c1,28.7
14,CN(CC(=O)Nc1ccc(C#N)cc1)CC(=O)Nc1ccc(N2CCOCC2)cc1,-56.3
15,Cc1cc(C(c2cc(C)c(N)c(C)c2)c2ccco2)cc(C)c1N,0.594
16,CC(=O)N1CCN(CC(O)COc2ccc(S(=O)(=O)N3CCOCC3)cc2)CC1.Cl (stereo not shown),7.78
17,CCOC(=O)c1c(C)n(-c2ccc(OC)cc2)c2ccc(O)c(CN(C)C)c12.Cl,-74.2
18,COc1ccc(C(=O)Nc2cc(OC)c(NC(=O)c3ccco3)cc2OC)cc1,-25.1
19,CCOC(=O)c1ccc(N/C(=N\S(=O)(=O)c2ccccc2C)c2ccccc2)cc1,-2.52
20,COc1cc2ccccc2cc1C(=O)Nc1ccc(C)cn1,8.6

row,SMILES,"hERG current change (%, negative = inhibition) at 10uM [%]"
1,Cc1[nH]c(C(=O)N/N=C/c2ccc(N(C)C)cc2)c(C)c1C(=O)N/N=C/c1ccc(N(C)C)cc1,24.5
2,Cc1cc(C)cc(NC(=O)CSc2nnc(CNC(=O)c3cccs3)o2)c1,-22
3,Cc1cc(/C=C(\C#N)C(=O)NC2CCCCCC2)c(C)[nH]1,9.54
4,O=C1c2ccccc2C(=O)N1CSc1ncccn1,5.23
5,O=S(=O)(c1ccc2ccccc2c1)N1CCN(S(=O)(=O)N2CCCCC2)CC1,-5.71
6,CC(=O)C(=Cc1cn(-c2ccccc2)nc1-c1ccccc1)C(C)=O,-21.3
7,CC(C)N(CCCNC(=O)CC1Oc2ccccc2NC1=O)Cc1ccccc1 (stereo not shown),-26.3
8,O=C(NC1=NCCS1)c1ccc([N+](=O)[O-])cc1Cl,5.48
9,CCOC(=O)Cn1nc(-c2ccccc2)c(-c2ccccc2)nc1=O,-33.2
10,CCOc1ncccc1C(=O)Nc1ccc(C)cn1,14.4
11,CCCCN1C(=O)C2Cc3c([nH]c4ccccc34)CN2C1=S (stereo not shown),16.4
12,COc1cccc2c(=O)c3c([nH]c12)OC(C)(C)C3,13
13,COCCNc1nc(-c2cc3ccccc3o2)cs1,2.17
14,COc1cccc(NC(=O)c2ccc(N3C(=O)C4CC=C(C)CC4C3=O)cc2)c1 (stereo not shown),15.7
15,CC(=O)N1c2ccc(S(=O)(=O)N3CCC(C(=O)N4CCCCC4)CC3)cc2CC1C (stereo not shown),19
16,Nc1nnc(CC(=O)N2CCCCC2)s1,12.5
17,CCCCC(=O)C1C(=O)NC(=O)NC1=O,-7.2
18,Cc1ccc(-c2c[n+](CC(=O)c3ccc(Br)cc3)c3n2CCCCC3)cc1.[Br-],-61.4
